# Some of the results follow. Sequences were assembled here from the parent chain. Inactive controls read about 0.05.
# B1: TEV protease; numbered along this chain (parent)
# chain: MGESLFKGPRDYNPISSSICHLTNESDGHTTSLYGIGFGPFIITNKHLFRRNNGTLVVQSLHGVFKVKDTTTLQQHLVDGRDMIIIRMPKDFPPFPQKLKFREPQREERICLVTTNFQTKSMSSMVSDTSCTFPSGDGIFWKHWIQTKDGQCGSPLVSTRDGFIVGIHSASNFTNTNNYFTSVPKNFMELLTNQEAQQWVSGWRLNADSVLWGGHKVFMVKPEEPFQPVKEATQL
# Variants of: B1
# Experiment: raw area under fraction-flipped curve 0-4 h after induction (AUC4h, not background-subtracted), DNA-recorder readout of cleavage of the substrate (dimensionless); higher = more cleavage of the substrate by the protease variant
# Conditions: temperature: 34 °C; time window: 0-4 h after rhamnose induction
# 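Note: Bxb1 expression induced with 0.2% (w/v) L-rhamnose at OD600 near 0.5, cultures sampled hourly, flipped fraction per protease–substrate barcode pair counted by paired-end Illumina sequencing.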
Variant,area with substrate ENAYFQS,area with substrate ENCYFQS,area with substrate ENDYFQS,area with substrate ENEYFQS,area with substrate ENGYFQS,area with substrate ENHYFQS,area with substrate ENKYFQS,area with substrate ENMYFQS,area with substrate ENPYFQS,area with substrate ENTYFQS,area with substrate ENVYFQS,area with substrate ENYYFQS,area with substrate ENNYFQS,area with substrate ENQYFQS,area with substrate ENRYFQS,area with substrate ENSYFQS,area with substrate ENFYFQS,area with substrate ENIYFQS,area with substrate ENWYFQS
H168F,0.0567,0.0505,0.0601,0.0527,0.051,0.0604,0.059,0.0489,0.0739,0.0611,0.0556,0.0548,,,,,,,
H168G,0.0653,0.0621,0.0669,0.0688,,0.0492,,,,,0.0575,,0.0811,0.0484,0.0584,0.0614,,,
H168I,0.0559,0.0547,0.0536,0.0569,0.0603,,0.0558,,0.0692,0.072,0.0662,,,0.0557,0.0505,0.0594,0.032,0.0516,0.0597
H168K,0.0598,0.0519,0.0617,,0.0491,0.0623,,0.0574,0.087,0.0397,,0.055,,,,0.0598,0.0585,0.061,
H168L,0.0304,0.084,,0.0662,,0.0569,0.0646,0.059,,,0.0825,,0.0612,0.058,0.0652,0.0606,0.06,,0.0666
H168M,0.0521,0.0383,0.0524,0.0881,0.0721,0.0558,0.0603,0.0662,0.0656,0.0613,0.0581,0.06,0.0618,,0.0651,0.0519,0.0755,,0.0455
H168N,0.0544,,0.0628,,0.0548,0.0625,0.0601,,,,,,,0.0553,0.0657,0.0546,0.0519,0.0622,0.0631
H168Y,0.0581,0.052,0.0623,0.065,0.0637,0.0663,0.0703,,,0.0845,0.0919,,0.0626,0.0587,0.069,0.0585,0.0576,0.0625,0.0512
T174D,0.0614,0.0641,0.0654,0.0608,0.0586,0.0725,0.0769,,0.0663,0.0581,0.0667,0.0561,0.0617,0.0575,0.0432,0.0676,,0.103,
N175K,0.063,0.0588,0.0737,0.0613,,0.0578,0.0683,0.0577,0.0623,0.0543,0.0608,,0.067,0.0702,0.0675,0.0529,0.0414,0.0852,0.055
T176C,0.0659,0.0562,0.0662,0.0457,0.067,0.0586,,,0.0636,0.0586,0.0782,,0.0381,0.054,0.0609,0.0583,0.0611,,
T176F,0.0415,0.026,0.056,0.0504,,0.0595,,,,0.067,0.0545,,,,0.0528,0.0458,0.0529,,0.0667
T176I,0.0591,,0.0583,0.0606,0.0643,0.109,0.061,0.0662,0.0593,0.0523,0.0561,,0.0741,0.0622,0.0559,0.0251,0.0579,0.0691,0.0518
T176M,0.0612,0.0924,0.0698,0.0653,0.0506,0.0532,0.0529,,0.0497,,0.0636,,0.0612,0.0595,0.0583,0.0545,0.0619,,
T176N,0.0635,,0.0585,,0.0643,0.0639,0.0139,,0.0513,,0.0685,,,0.0553,0.0774,0.0669,0.0681,,
T176V,0.0427,0.0577,0.0741,0.0593,,0.0678,,,,,,0.0671,0.0385,0.0581,,,,,
N177E,0.0565,0.0727,0.0691,0.0645,0.0693,,0.0606,0.0701,0.0536,0.0661,0.0654,0.0648,0.0603,0.0669,0.0662,0.0648,0.074,0.0832,0.042
P184C,0.0542,0.0702,,0.0623,0.0583,,,,,0.0595,,,0.0645,0.0491,0.0589,0.0624,,,
P184I,0.04,0.0497,0.0512,0.066,0.0574,,0.0582,0.0705,,0.0912,0.0566,,0.0566,0.0639,0.0674,0.0674,,0.0603,
P184L,0.0545,0.0538,0.0666,0.0496,0.0531,0.0583,,0.0512,0.0619,0.0548,0.0497,0.0596,,0.0578,0.0539,0.0586,0.061,0.0733,
P184N,0.0618,0.0473,0.0613,0.053,0.0575,0.0751,0.0497,0.0707,0.0551,0.0474,0.0721,0.051,,0.0506,,0.0647,,0.0945,
P184S,0.0527,0.0589,0.0545,0.065,0.0538,0.0574,0.0656,,0.0754,,0.0661,0.0565,0.0531,0.063,0.0618,0.0656,0.0556,0.0646,
P184V,0.0565,0.0678,0.059,0.0527,,,0.0724,,0.0563,0.07,0.0795,0.0547,,,0.0454,,0.0549,,
P184W,0.0466,0.0632,0.0533,0.0698,0.0745,0.0526,0.045,,,0.0728,,0.0689,0.0507,0.0608,0.0544,0.0644,0.0206,,
T192H,0.0608,,0.0581,0.0616,0.0555,,0.0862,0.0787,,0.056,0.0868,,0.0621,0.0586,,0.0642,0.0708,0.12,
